Data published in PubChem BioAssay AID445 (National Center for Advancing Translational Sciences (NCATS), 2006).
Among all 110,000 compounds or so, about 40 (0.04%) were called active. The inconclusive results got no clear call from the source; some entries with a clear call stand among them for comparison. The call rests on the fitted dose curve; in most records, active means well fitted curve in the direction sought with a large enough effect in the signal ratio (not every such curve was filed as active); inconclusive means small, poorly fitted or top-dose-only effect, or a change in a side signal; inactive means flat fitted curve, though single readings scatter; the % refers to the signal ratio. Where the call is inconclusive, the potency comes from a doubtful curve fit.

Assay: IkB Signaling;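 on IkBa stabilization activation: 0% = basal untreated cells and 100% = reference inhibitor full response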
Settings: ABC-DLBCL IkBa-CBG/CBR dual luciferase ratio (green luciferase fused to IkBa over red control in OCI-Ly3 lymphoma cells), 4 h; IkBa stabilization activation: at 57.1 µM (top of the series), scaled: untreated 0%, proteasome inhibitor 100% unless noted
Method in brief: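 Luminescence ratio of IκBα-fused green versus native red beetle luciferase in OCI-Ly3 cells, 4 h post-doxycycline with compound; red signal alone, scaled from basal (0%) to zero light (-100%), flagged nonspecific or cytotoxic effects.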
Potency means the concentration at half of the fitted maximal effect.

| Structure (SMILES) | IkBa stabilization activation | Potency |
| --- | --- | --- |
| O=C(Nc1ccc(F)cc1Cl)c1cnc(N2CCOCC2)c2ccccc12 | inactive |  |
| Fc1ccc(-c2cc3nc(-c4ccccc4)cc(N4CCN(CCN5CCOCC5)CC4)n3n2)cc1 | inconclusive: 12.6% [signal inhibitor] |  |
| Clc1cccc(-n2ncc3c(NC4CCCCCC4)ncnc32)c1 | inconclusive: -1.46% [signal inhibitor] |  |
| COc1ccc(CCNC(=O)CCCCn2c(=O)c3ccccc3n(Cc3ccccc3)c2=O)cc1OC | inconclusive: 1.61% [signal inhibitor] |  |
| O=C(NCc1ccccc1)c1cccc(OCC(=O)N2CCN(C(=O)c3ccco3)CC2)c1 | inconclusive: 4.28% [signal inhibitor] |  |
| CCOC(=O)c1ccc(NC(=O)CSc2ncc(S(=O)(=O)c3ccc(C)c(Cl)c3)c(=O)[nH]2)cc1 | inconclusive: 6.91% [signal inhibitor] |  |
| CCn1cc2nc(SCC(=O)Nc3ccc(OC)cc3OC)n(Cc3ccc(Cl)cc3)c(=O)c2n1 | inactive |  |
| O=C1CC(c2ccco2)Sc2nc3ccccc3n21 (stereo not given) | inactive |  |
| CCCCN(C)c1nnc(NC(=O)Nc2ccc(Br)c(C)c2)s1 | inconclusive: 1.78% [signal inhibitor] |  |
| CCOc1ccc(NC(=O)Cn2cc(C(=O)c3ccc(C)cc3)c(=O)c3cc4c(cc32)OCO4)cc1 | inconclusive: 2.99% [signal inhibitor] |  |
| Brc1cccc(-c2nnn3c2nc(N2CCCCC2)c2ccccc23)c1 |  | inconclusive: 3.98 µM [signal inhibitor, full curve] |
| CCn1c2c(c(=O)n3ncc(C(=O)Nc4ccc(Cl)cc4C)c13)CN(Cc1ccc(OC)cc1)CC2 | inconclusive: 1.24% [signal inhibitor] |  |
| Cc1ccc2nc3c(c(Nc4ccc(C)c(C)c4)c2c1)CCC3 | inconclusive: 10.8% [signal inhibitor] |  |
| CCOC(=O)c1ccccc1NC(=O)CSc1ncc(C(=O)OCC)c(N)n1 | inactive |  |
| O=C(CNS(=O)(=O)c1cccs1)N1CCN(c2ccccc2F)CC1 | inconclusive: -2.65% [signal inhibitor] |  |
| Cc1ccc(F)cc1S(=O)(=O)N1CCC(c2nc3ccccc3s2)CC1 | inactive |  |
| CCCn1c(=O)c2sccc2n2c(CCCC(=O)NC3CCCCC3)nnc12 | inconclusive: 0.65% [signal inhibitor] |  |
| COCCCNC(=O)c1ccc(-n2c(-c3ccccc3)cc3c2CCCCC3)cc1 | inconclusive: 1.82% [signal inhibitor] |  |
| CCOCCn1c(SCCCc2ccccc2)nc2c1c(=O)[nH]c(=O)n2C | inactive |  |
| CC(C)N(Cc1cc2ccccc2[nH]c1=O)C(=O)C1CCCCC1 | inconclusive: 1.62% [signal inhibitor] |  |
| CC1=C(C(=O)OC2CCCCCC2)C(c2ccc(Cl)cc2Cl)CC(=O)N1 (stereo not given) | inconclusive: 8.59% [signal inhibitor] |  |
| COc1cccc(CNC(=O)c2cc(=O)[nH]c3ccc(S(=O)(=O)N4CCCC4)cc23)c1 | inactive |  |
| Cc1cc(C)nc(N2CCCC(C(=O)Nc3nc4ccc(S(C)(=O)=O)cc4s3)C2)n1 (stereo not given) | inconclusive: 0.73% [signal inhibitor] |  |
| COc1ccc(CNC(=O)CC2Oc3ccc(C)cc3NC2=O)cc1 (stereo not given) | inconclusive: 1.24% [signal inhibitor] |  |

| Structure (SMILES) | IkBa stabilization activation | Potency |
| --- | --- | --- |
| COC(=O)c1cc2oc3ccccc3c2n1CC(=O)Nc1ccc(F)c(Cl)c1 | inconclusive: 3.92% [signal inhibitor] |  |
| Cc1nn2cc(-c3ccc(N)cc3)nc2s1 | inactive |  |
| CCOc1ccc(CCNC(=O)c2nn(C)c3c2CSc2ccc(C)cc2-3)cc1OCC | inconclusive: 0.326% [signal inhibitor] |  |
| Cc1cccc(Cn2c(CN3CCCC(C)C3)nc3c2c(=O)n(C)c(=O)n3C)c1 (stereo not given) | inconclusive: 3.52% [signal inhibitor] |  |
| CC(=O)c1c(C)nn(C(=O)c2cccs2)c1C | inactive |  |
| CCC(=O)Nc1ccc(CC)cc1-c1nc2ccccc2n(CC(=O)c2ccc(OC)cc2)c1=O | inconclusive: 7.45% [signal inhibitor] |  |
| CC1CCCCN1C(=O)CN1CCSc2ccccc21 (stereo not given) | inconclusive: 4.62% [signal inhibitor] |  |
| Cc1c(Cl)cccc1NC(=O)c1oc2ccc(S(=O)(=O)N3CCC4(CC3)OCCO4)cc2c1C | inconclusive: 0.378% [signal inhibitor] |  |
| COc1ccc(C(=O)Oc2ccc(C(c3c(C)[nH][nH]c3=O)c3c(C)[nH][nH]c3=O)cc2)cc1 | inconclusive: 5.88% [signal inhibitor] |  |
| O=C(CSCc1ccc(Cl)cc1)NCC1CCCO1 (stereo not given) | inconclusive: 4.48% [signal activator] |  |
| COc1cc(C(=O)N2CCN(c3cccc(C)c3C)CC2)cc(OC)c1OC | inconclusive: 10.7% [signal activator] |  |
| O=C1NC(c2ccccc2)C(C(=O)c2cccs2)=C1O (stereo not given) | inconclusive: 7.01% [signal inhibitor] |  |
| CNc1ncnc2ccc(-c3ccccc3OC)cc12 | inactive: -0.243% [at 11.4 µM, scaled: untreated 0%, proteasome inhibitor 100%] |  |
| COc1c2occc2c(OC)c2c(=O)cc(C)oc12 | inactive |  |
| COc1cc(C2C(C(=O)Nc3ccccc3C)=C(C)Nc3nc(SCc4cc(C)ccc4C)nn32)ccc1O (stereo not given) | inactive |  |
| O=S(=O)(NCCc1csc2nc(-c3ccccc3)nn12)c1ccc(Oc2ccccc2)cc1 | inconclusive: 7.04% [signal inhibitor] |  |
| Cc1ccc(Cl)cc1N1CCN(C(=O)c2noc3c2CCCC3)CC1 | inconclusive: 2.62% [signal inhibitor] |  |
| CN(CCc1ccccn1)c1ccc2c(c1)Cc1ccccc1-2 | inactive: -0.755% [at 11.4 µM, scaled: untreated 0%, proteasome inhibitor 100%] |  |
| COc1ccc(C(=O)c2c[nH]c3ccccc23)cc1 | inactive |  |
| COc1ccc(Cl)cc1NC(=O)Cn1nnc2sc(-c3ccccc3)cc2c1=O | inconclusive: 5.3% [signal inhibitor] |  |
| COC(=O)Cc1ccc(NC(=O)c2cccs2)cc1 | inconclusive: 12% [signal inhibitor] |  |
| O=C1CN(C(=O)Cc2ccccc2)C(c2ccc(F)cc2)c2cc(Br)ccc2N1 (stereo not given) | inconclusive: 7.93% [signal inhibitor] |  |
| Cc1cc(S(=O)(=O)Nc2ccc3oc4c(c3c2)CCCC4)ccc1Cl | inconclusive: -7.25% [signal inhibitor] |  |
| CCCc1nn2c(=O)cc(COC(=O)c3ccc(NC(=O)COc4ccccc4F)cc3)nc2s1 | inactive |  |

| Structure (SMILES) | IkBa stabilization activation | Potency |
| --- | --- | --- |
| Cc1ccc(S(=O)(=O)N2CCc3cc(C(=O)Nc4ccc(Cl)cc4C)ccc32)cc1 | inactive |  |
| CCOc1ccc(CCNCc2c(C(=O)O)c(C)n(Cc3ccccc3F)c2C)cc1 | inconclusive: 2.09% [signal inhibitor] |  |
| CC1CCN(C(=O)CN2C(=O)C(C)(C)Oc3ccc(C(=O)NC4CCCC4)cc32)CC1 | inconclusive: 0.978% [signal activator] |  |
| Cc1ccccc1Nc1nc(CSc2nnc(-c3ccoc3C)n2C)cs1 | inactive |  |
| COc1ccc(NS(=O)(=O)c2ccc3c(c2)[C@H]2C=CC[C@H]2[C@@H](c2ccc(C(=O)O)cc2)N3)cc1 | inactive |  |
| CC1CCN(S(=O)(=O)c2ccc3c(c2)N(CC(=O)NCCCN2CCCC(C)C2)C(=O)CS3)CC1 (stereo not given) | inconclusive: -0.0315% [signal inhibitor] |  |
| CCN(C(=O)c1cn(C)c(=O)c2cc(OC)c(OC)cc12)c1cc(OC)ccc1OC | inactive |  |
| O=C(/C=C\Nc1ccccn1)c1ccccc1 |  | inconclusive: 12.6 µM [signal inhibitor, partial curve] |
| CN1C(=O)C2(OCC(COc3ccc(Cl)cc3)O2)c2ccccc21 (stereo not given) | inconclusive: 6.45% [signal inhibitor] |  |
| Cc1cccc(NC(=O)c2oc3ccc(S(=O)(=O)N4CCC5(CC4)OCCO5)cc3c2C)c1C | inconclusive: -0.7% [signal inhibitor] |  |
| COc1ccc(-n2nnc3c(=O)n(Cc4cccc(C)c4)cnc32)cc1 | inactive |  |
| CC(O)COC(C)(C)C (stereo not given) | inactive |  |
| O=C(Nc1ccc(-c2nc3ccccc3[nH]2)cc1)c1ccco1 | inactive |  |
| CCOc1ccccc1NC(=O)c1nn(C)c2c1CSc1ccccc1-2 | inactive |  |
| COc1ccccc1CNc1nc(-c2cccc(NS(C)(=O)=O)c2)nc2ccccc12 | inactive: -2.38% [at 11.4 µM, scaled: untreated 0%, proteasome inhibitor 100%] |  |
| CCOC(=O)c1cc(S(=O)(=O)Nc2ccccc2OCC)[nH]n1 | inactive |  |
| N/C(=N/O)c1nc(N2CCCC2)nc(N(c2ccccc2)c2ccccc2)n1 |  | inconclusive: 15.8 µM [signal inhibitor, partial curve] |
| CCOC(=O)C1CCN(S(=O)(=O)c2cn(C)c(=O)n(C)c2=O)CC1 | inconclusive: -8.49% [signal inhibitor] |  |
| COc1ccc(-n2c(=O)c3c4c(sc3n3c(SC(C)C)nnc23)COC(C(C)C)C4)cc1 (stereo not given) | inconclusive: 14.8% [signal inhibitor] |  |
| CCCNC(=O)c1c(N)n(-c2cc(OC)cc(OC)c2)c2nc3ccccc3nc12 | inconclusive: 3.5% [signal inhibitor] |  |
| COc1ccccc1-c1cc(C(F)(F)F)nc(S(=O)(=O)CCCC(=O)Nc2ccc(F)cc2F)n1 |  | inconclusive: 6.31 µM [signal inhibitor, single point] |
| O=C(Cn1c(=O)n(Cc2nc(-c3ccccc3)no2)c(=O)c2cc3c(cc21)OCO3)Nc1cccc(C(F)(F)F)c1 | inconclusive: -1.68% [signal inhibitor] |  |
